# Measurements as given in the supplement of paper PMC3334620.
# Over roughly 33,000 sequences, “E-score (-0.5 to 0.5)” has its median near -0.043; the highest 2% begin near 0.37. This is one part of the list.
# Target: T1, Upc2 (UniProt Q12151)
# T1 sequence: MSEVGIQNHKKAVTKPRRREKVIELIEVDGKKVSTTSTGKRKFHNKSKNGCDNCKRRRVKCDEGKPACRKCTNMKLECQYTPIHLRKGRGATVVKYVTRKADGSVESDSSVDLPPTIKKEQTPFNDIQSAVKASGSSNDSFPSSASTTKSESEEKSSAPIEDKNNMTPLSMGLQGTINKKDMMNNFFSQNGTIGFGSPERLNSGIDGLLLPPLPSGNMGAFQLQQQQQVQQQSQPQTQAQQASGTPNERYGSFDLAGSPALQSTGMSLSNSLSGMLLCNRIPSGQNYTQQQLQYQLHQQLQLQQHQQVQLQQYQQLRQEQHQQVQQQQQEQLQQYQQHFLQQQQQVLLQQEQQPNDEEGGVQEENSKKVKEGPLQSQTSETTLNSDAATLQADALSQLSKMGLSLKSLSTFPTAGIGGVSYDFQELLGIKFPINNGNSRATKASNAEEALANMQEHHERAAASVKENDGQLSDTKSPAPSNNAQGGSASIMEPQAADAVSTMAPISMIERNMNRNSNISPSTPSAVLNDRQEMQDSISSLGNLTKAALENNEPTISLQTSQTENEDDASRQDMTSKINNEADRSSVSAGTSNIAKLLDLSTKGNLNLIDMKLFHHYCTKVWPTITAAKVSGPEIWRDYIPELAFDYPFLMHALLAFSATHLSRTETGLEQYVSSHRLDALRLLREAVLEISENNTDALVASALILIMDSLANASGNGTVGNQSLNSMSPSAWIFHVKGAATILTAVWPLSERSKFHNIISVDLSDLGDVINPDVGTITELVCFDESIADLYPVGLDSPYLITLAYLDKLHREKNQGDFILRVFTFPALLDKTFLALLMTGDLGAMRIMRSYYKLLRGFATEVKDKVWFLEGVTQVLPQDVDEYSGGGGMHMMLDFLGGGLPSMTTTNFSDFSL
# Assay: PBM E-score (8-mer binding enrichment) (E-score (-0.5 to 0.5)); higher = stronger / more preferred TF binding; most listed sequences are background and not binding sites
# Settings: protein concentration: 200 nM; construct: GST-full length
# Outline: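 Using PURExpress in vitro transcription/translation, GST-tagged yeast transcription factors were made in full-length or DNA-binding-domain form. These were applied at about 100-200 nM to double-stranded universal all-10-mer Agilent arrays, and bound protein was detected with fluorescent anti-GST. Scans were normalised with masliner before the Universal PBM Analysis Suite assigned E-scores to ungapped eight-base words pooled with their reverse complements.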
row,Sequence,PBM E-score
1,CCGGAACA,-0.189
2,TAAATGAA,0.00813
3,AGAACGGG,0.147
4,CTGAAAAA,-0.0416
5,CCTTATTC,-0.115
6,ACAACGTA,0.161
7,ACACCGCC,-0.0148
8,GATCACAC,-0.178
9,CGGTTCCA,0.152
10,GCTGTCAC,-0.189
11,AGGGTTTC,-0.276
12,CACTCTAG,-0.141
13,CCCGGAGG,-0.268
14,CTATCTAA,-0.067
15,GCAGGCAA,-0.239
16,AGTCCAGG,-0.277
17,AACAAGAT,-0.00017
18,CAACCGCG,-0.00782
19,CGATGCAC,-0.0246
20,AAATCAAT,-0.0433
21,CGGCCCCG,-0.135
22,AGGGTTAC,-0.0122

row,Sequence,PBM E-score
1,GCGGACGC,-0.169
2,CCCATTGC,-0.184
3,ACAGGTAC,0.23
4,TATCAGGA,0.0996
5,CAAACATC,-0.00545
6,AACGCGCC,0.192
7,AAATAGTT,-0.014
8,ATGGTAAG,-0.137
9,GAAATTCC,-0.186
10,ACCTACAA,-0.0249
11,CTCGACTC,0.034
12,CACCCTAA,0.0059
13,GCGCTCAA,-0.0887
14,ATCACTGC,-0.0525
15,CGCCTCCA,-0.0849
16,GAACGATC,0.429
17,TCACTGGA,-0.289
18,CCTCCCGA,-0.053
19,CTACCCGC,-0.283
20,GTCTGTAA,0.0716
21,GGATGGAC,-0.0397
22,CATTCTGA,-0.0524

row,Sequence,PBM E-score
1,ACAGTTCA,0.0458
2,ACTCTAAG,-0.215
3,CGATTGCA,0.106
4,ACTAGTCG,-0.0858
5,CCCCTTAG,-0.0378
6,AACAACCC,0.108
7,CTGTCCTA,-0.121
8,GATTCGTA,0.438
9,CATCGAAG,-0.137
10,AATTCTGG,-0.138
11,ATTCGTGC,-0.094
12,ACTCATTC,-0.0932
13,GTATATTA,0.21
14,CGCTATCC,0.151
15,AGGTCTAC,0.0393
16,TCTCCAAA,-0.107
17,AAAGGCTT,-0.178
18,AATGTTGA,-0.14
19,TGATAGAA,-0.073
20,GATTCTTA,0.137
21,AAGTGCTG,0.0542
22,GAGCTTAA,-0.0033

row,Sequence,PBM E-score
1,CTTCCACC,-0.173
2,CCGGTACG,0.421
3,AGGAGTAA,-0.183
4,GCACTCGA,-0.074
5,CCTTGGCG,-0.0871
6,CGAATAGA,0.167
7,ACTTATTA,-0.00569
8,ACCAGTTC,-0.0843
9,CATAAGCG,0.13
10,ATCTAGTA,0.171
11,GTCCGTAA,0.279
12,CCGGAGAA,-0.0173
13,CGTGTGAC,-0.0865
14,GCCATCCA,-0.197
15,ATCAGGGA,-0.189
16,AAGTTGGC,-0.124
17,ATGCTATG,-0.0709
18,GCTGTTCC,-0.178
19,ATTCGTCC,0.0624
20,ATATACGA,0.492
